Experimental data from PMC7180069 (PLoS ONE, 2020).

Target: the molecule itself
Test: non-reducing SDS-PAGE; recombinant CCL20 on SDS-PAGE under non-reducing conditions

B1: CCL20 (natural protein)
chain: not shown
notes: recombinant CCL20; also called LARC; source: recombinant
stoichiometry N: 2
